Some of the results follow.

This assay has as its target T1, OsWOX13 (Oryza sativa, UniProt Q5QMM3 1-267).
T1 sequence: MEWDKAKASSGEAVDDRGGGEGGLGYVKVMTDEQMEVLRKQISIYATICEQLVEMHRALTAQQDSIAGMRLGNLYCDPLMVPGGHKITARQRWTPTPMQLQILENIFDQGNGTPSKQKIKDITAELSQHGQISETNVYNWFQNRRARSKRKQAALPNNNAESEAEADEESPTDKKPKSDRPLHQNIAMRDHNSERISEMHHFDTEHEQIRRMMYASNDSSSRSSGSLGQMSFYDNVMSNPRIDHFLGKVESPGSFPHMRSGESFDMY
Nature of the assay: protein-binding microarray (RPBM); PBS, 2% BSA, 51.3 ng/ul salmon testes DNA, 50 uM zinc acetate, 200 nM TF, 25 C, 1 h; high values mean tight binding. The settings on record: protein: recombinant; tags: N-terminal polyhistidine and DsRed monomer fusion (pET32a); label: CyDye5-dUTP incorporated in the synthesized complementary strand; 3' TTTTT single-stranded linker to array surface; dsDNA, one strand shown. The gist of the method:
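The binding signal is fluorescence intensity per array feature (arbitrary units). Readings came from an Axon 4000B scanner after a washed, 2% BSA-blocked, double-stranded custom Agilent array had been incubated for 1 h at 25 °C with 200 nM protein and 50 µM zinc acetate. The protein was a Ni–NTA-purified transcription factor fused N-terminally to polyhistidine and DsRed, expressed in E. coli BL21-CodonPlus.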
Consider “AGACTCTGACATGCAATCACCGAGCAAAGCCCAATATATACGGAGTCACCTAGTGCAG”, for which the binding signal was 4640 fluorescence intensity (a.u.).

As for “GAGTCTGTGATTAATGGGCAAATCATACTCACTCCATCCACGGAGTCACCTAGTGCAG”, the binding signal was 20600 fluorescence intensity (a.u.). Under “ATAACTACAAATTAATCCATGATTAGTTGACTGTAATCAACGGAGTCACCTAGTGCAG” stands 26900 fluorescence intensity (a.u.). Under “ATTTAATTAGAATTTAATATGTTTTAATTCAATTTTCTCTCGGAGTCACCTAGTGCAG” stands 21400 fluorescence intensity (a.u.); under “TCTGTCACATCGTTCCAATTTCAATCAAACTTTCAATTTTCGGAGTCACCTAGTGCAG”, 4060 fluorescence intensity (a.u.). For the sequence “GACCCTAATTCGTCGGAGATTGGGTTGTCGCCGGCACCAGCGGAGTCACCTAGTGCAG”, the binding signal was 3820 fluorescence intensity (a.u.). Regarding “ACCTCAATTATAGCACTGCCTCTCCTCCAAGCTAGCAGCTCGGAGTCACCTAGTGCAG”, the binding signal was 3440 fluorescence intensity (a.u.).

With “TTGTGACTTGACTTTGCCAATCTTAGTCTATTTTCTCGAGCGGAGTCACCTAGTGCAG”, the binding signal is 5270 fluorescence intensity (a.u.). Under “GGCACTAATAAAATGCTAAATTAACTTCACATCGACAACACGGAGTCACCTAGTGCAG” stands 5970 fluorescence intensity (a.u.). Next, “CGACCACTAATTAAGGGAGTCAATGTGAACTTATTCGTCCCGGAGTCACCTAGTGCAG”: 13100 fluorescence intensity (a.u.); “GGTAATTGAGAATGAATTCCTCCTTTACTTTGCCTAAACACGGAGTCACCTAGTGCAG”: 24300 fluorescence intensity (a.u.). Next, “CATATACAAATTATGTAAAACATACGAAGCATCCTTTTGGCGGAGTCACCTAGTGCAG”: 6740 fluorescence intensity (a.u.). As to “GAGATAATTTGATCTAAATATTTTGGTAAGCGTAGAAAGGCGGAGTCACCTAGTGCAG”, the binding signal is 25700 fluorescence intensity (a.u.).

For the sequence “TGGAGTGACTGATCTTCTGTTTGTCAGTAATCAGTCAGTTCGGAGTCACCTAGTGCAG”, the binding signal was 5170 fluorescence intensity (a.u.). Next, “CAGTCTACAAATTTAGGCCAATTTCAAAATTTGTGTGGAGCGGAGTCACCTAGTGCAG”: 4250 fluorescence intensity (a.u.); “TGACAAATTGCTTTAACTTTGATCAAGTTTGTAGAGAAAACGGAGTCACCTAGTGCAG”: 4900 fluorescence intensity (a.u.); “CCTAATTAAAACTAACCTGAGTTGCTAGGCTTGGTGAAGGCGGAGTCACCTAGTGCAG”: 25100 fluorescence intensity (a.u.).

With “ATGCTTATTAATTACCAACCTCAACTCTCAGTCTCTCTTTCGGAGTCACCTAGTGCAG”, the binding signal was 5540 fluorescence intensity (a.u.).

For “TTTCTCTAATTATTATGGATTATATTATGGGAGTTTCTAGCGGAGTCACCTAGTGCAG”, the binding signal is 14300 fluorescence intensity (a.u.). Under “ATCAATAGATAGATAGATAGATGTACACGCACGATCGACTCGGAGTCACCTAGTGCAG” stands 23500 fluorescence intensity (a.u.); under “AAATTATGTAAATTATACTAGTTGACTTGAGCCTTATGTTCGGAGTCACCTAGTGCAG”, 4000 fluorescence intensity (a.u.). Take “CTTAATGAGAAAAGATTAGGTCTCTCTAGCCATACGAGCACGGAGTCACCTAGTGCAG”: the binding signal was 17100 fluorescence intensity (a.u.). Under “CGAGACAGTCCCAATTAAACCGATACGTCTGTAAACACAACGGAGTCACCTAGTGCAG” stands 5200 fluorescence intensity (a.u.). For “AATTGATTTCTCTATAGACAAATAGGGAATGCCAGATTGACGGAGTCACCTAGTGCAG”, the binding signal was 16200 fluorescence intensity (a.u.). “CTAAAGCTAAATTTTGATTTGTATGAGGAGCCTAACGATGCGGAGTCACCTAGTGCAG”: the binding signal is 11700 fluorescence intensity (a.u.).

For “TCAATTTAAATTATTTCTTAAATGCAATTCTATTTATTAACGGAGTCACCTAGTGCAG”, the binding signal was 13100 fluorescence intensity (a.u.). Under “AGGATCTAATTTAATTCGGTTTTACAAGTTGGAGCTTAAACGGAGTCACCTAGTGCAG” stands 3490 fluorescence intensity (a.u.); under “ATTAACTGCATTTTCGTCGCATCCGGATTATGGAGCTCCACGGAGTCACCTAGTGCAG”, 8210 fluorescence intensity (a.u.). With “GAAAATTAGAGTTTAATTCTATTAAATATAGTGGATTGTACGGAGTCACCTAGTGCAG”, the binding signal is 22500 fluorescence intensity (a.u.). Under “TTATAATTATTTTGGGACGGGTAGTACTGAACGTCATCTACGGAGTCACCTAGTGCAG” stands 12500 fluorescence intensity (a.u.); under “TTGTTAATTACCGCGATTGATGTCGAGCTTGCATTTTGATCGGAGTCACCTAGTGCAG”, 40900 fluorescence intensity (a.u.); under “TATTCAATAATGATTTCCCCTGTATTATAGTTCTATTACACGGAGTCACCTAGTGCAG”, 3840 fluorescence intensity (a.u.). As to “AACAGCTGATGAGTGATGATTGACAGACATCACACGCGGACGGAGTCACCTAGTGCAG”, the binding signal was 57600 fluorescence intensity (a.u.). Under “ACAATATGATTAATATGACACGGGTAAGCACATAATCGGTCGGAGTCACCTAGTGCAG” stands 28200 fluorescence intensity (a.u.). Take “CACGCAGATTGACGCTCCTGGGATCAGTAATGCCCATGGTCGGAGTCACCTAGTGCAG”: the binding signal was 28400 fluorescence intensity (a.u.). Under “ACAATGATTGGGTCTTAAGATTTTCTTTAATTATTCGACGCGGAGTCACCTAGTGCAG” stands 58300 fluorescence intensity (a.u.). As for “GTAATCAAATTGTCTCTTTAGATAGCGTGTGTTAGGGGACCGGAGTCACCTAGTGCAG”, the binding signal is 5110 fluorescence intensity (a.u.). On to “CGTAATCACAGTTATTTTCTTCGCAACAACAAGAATGATGCGGAGTCACCTAGTGCAG”, for which the binding signal is 6870 fluorescence intensity (a.u.). Turning to “AGTGATAGAAGACTTATCGGTATGATCTATAGTCAATTGCCGGAGTCACCTAGTGCAG”, the binding signal was 13800 fluorescence intensity (a.u.).

Turning to “TGGTTTATTAGCACTAATCATGAAACGGACTAGTAAATGACGGAGTCACCTAGTGCAG”, the binding signal was 4580 fluorescence intensity (a.u.). Regarding “TGGTATTTGATCAAATTTGGATAACTTTACATTCATACACCGGAGTCACCTAGTGCAG”, the binding signal is 4720 fluorescence intensity (a.u.).

Regarding “CCTAATTACGCTGTAACACATCAGAACAAGAAATTCATAACGGAGTCACCTAGTGCAG”, the binding signal was 23300 fluorescence intensity (a.u.).

(Values after PMC7819943, “Rice protein-binding microarrays: a tool to detect cis-acting elements near promoter regions in rice”.)
